Here are results for 85 molecules from PubChem BioAssay (NCI).

Several values for one entry are separate records, joined by “and”; a condition that tells them apart may be missing. Identical values can stand only once.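 Test compounds were applied to cells in 96-well plates for 48 hours at 5 doses. GI50: concentration for 50% inhibition of growth. TGI denotes the concentration required for complete inhibition of growth.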

The subject of the assay is NCI-H322M lung. Briefly: NCI-60 cell line screen, 48 h.
Molecule `COc1c(OC)c(O)c2c(=O)c(OC)c(-c3ccc4c(c3)OCO4)oc2c1O` registered a TGI of over 100 µM. `CCOC(=O)CCc1c(C(=O)OCC)[nH]c(/C=C2\NC(=O)C(C)=C2CC)c1C` returned a TGI of 20.2 µM.

As for `OCCCCC#Cc1ccccc1C#Cc1ccccc1F`, the GI50 is 21.4 µM and the TGI is 49.2 µM. `CC1CCC2(NC1)OC1CC3[C@@H]4CC=C5C=CCC[C@]5(C)C4CC[C@]3(C)C1C2C` (stereo not given in full) had a TGI of 52.2 µM. `O=C(Nc1ccc(Cl)cc1)c1cc2c(cc1O)[nH]c1ccccc12`: the GI50 was 1.94 µM and the TGI came to 6.67 µM. `Cc1cc(Nc2ccc(N=Nc3ccc(O)c4ncccc34)cc2)nc(C)n1` displayed a TGI of 67.6 µM. `CN1C/C(=C\c2ccc(Cl)cc2)C(=O)/C(=C/c2ccc(Cl)cc2)C1` returned a TGI of over 100 µM. Consider `Cc1[nH]c(C(=O)Nc2ccc(C(=O)N3CCNCC3)cc2OC(C)C)c(Cl)c1Cl`, for which the GI50 was 2.1 µM and the TGI was 5.54 µM. The molecule `O=c1[nH]c(=O)n(COCc2ccccc2)c2ccc(Br)cc12` showed a TGI of over 100 µM. The same measure, in the same setting: the result for `CC(NC(=O)OCc1ccccc1)NC(=O)C(CC(=O)OC(C)(C)C)NC(=O)OC(C)(C)C` (stereo not given) reads over 100 µM.

As for `Fc1ccc(C2CC(c3cccc(Nc4ccncc4)c3)=NN2c2cc(Cl)cc(Cl)c2)cc1` (stereo not given), the GI50 is 1.6 µM and the TGI turned out to be 3 µM. On to `COc1ccc(C2=CC(c3cc(OC)c(OC)c(OC)c3)NC(=O)N2)cc1OC` (stereo not given), for which the GI50 was 4.19 µM and the TGI stood at 16 µM. `CC1CCc2c(sc3ncnc(N/N=C/c4ccc(Cl)c(Cl)c4)c23)C1` (stereo not given) displayed a TGI of over 100 µM. `CN(C)CCOC(=O)c1ccc(N)cc1`: the TGI was over 100 µM. The same measure, in the same setting: to `CC(=O)OCc1cc(=O)n(C)c2c3c4c(cc12)c(C)cc(=O)n4CO3` belongs 13.4 µM. Consider `COc1cc(N=Nc2ccccc2)cc(/C=N\[N-]C(N)=S)c1[O-].COc1cc(N=Nc2ccccc2)cc(/C=N\[N-]C(N)=S)c1[O-].[Fe+4]`, for which the GI50 was 51.8 µM and the TGI was over 100 µM.

In turn, `O=C(NCCCCNCCCNC(=O)c1ccccc1)c1ccccc1` returned a TGI of over 100 µM. The molecule `O=c1[nH]c(=O)n(C2CC(O)C(CO)O2)cc1C(OCC(F)(F)F)OCC(F)(F)F` (stereo not given) displayed a TGI of over 100 µM. Turning to `COc1ccc(C(O)c2cc3c(N)c(C(=O)Nc4cccc(Cl)c4C)sc3nc2C)cc1` (stereo not given), the GI50 is 0.869 µM and the TGI was 1.81 µM. Molecule `COc1ccccc1NC(=S)N/N=C(/C)c1ccccn1` yielded a TGI of over 87.8 µM. As for `Cn1c(=O)c(Oc2cccc(F)c2)cc2cnc(NC3CCOCC3)nc21`, the GI50 is over 25 µM and the TGI is over 25 µM. `O=C1CCC2(CC1CCSc1ccccc1)OCCO2` (stereo not given): the TGI was over 100 µM. For `O=C1OC2(C(F)(F)F)Oc3ccccc3CN2C12CCCCC2` (stereo not given), the TGI is over 100 µM.

Molecule `O=C(CN1CCCCC1)c1ccc2c(c1)Sc1ccccc1O2` showed a TGI of 29 µM. For `CCOCC(=O)N[C@H]1CCc2cc(OC)c(OC)c(OC)c2-c2ccc(SC)c(=O)cc21`, the TGI was over 21.5 µM. `COc1cc(/C=C2\N=C(c3ccccc3)N(/N=C3\C(=O)Nc4ccccc43)C2=O)cc(OC)c1OC` yielded a TGI of over 100 µM.

With `Cc1ccc(C(=O)O/N=C2/CCCCC2CN(C)C)cc1` (stereo not given), the TGI was over 100 µM. In turn, `CC1=C(C)CC2(SC1)C(=O)c1ccccc1C2=O` displayed a TGI of over 100 µM. As for `COCN1CCN=c2c1c1c3c(c4ccccc4n23)CCC1`, the TGI was over 100 µM. Turning to `CCCCCCOc1ccc(/C=N/NC(N)=S)cc1`, the GI50 is 34.6 µM and the TGI is over 100 µM. For the molecule `CCCCCCCCCCCCCCCC(=O)OCC1OC(n2cnc3c(=S)nc(N)[nH]c32)C(OC(=O)CCCCCCCCCCCCCCC)C1OC(=O)CCCCCCCCCCCCCCC` (stereo not given), the GI50 was over 33.6 µM and the TGI is over 50 µM. The molecule `Cc1cc(=O)c2cc(N=Cc3ccc([N+](=O)[O-])o3)ccc2o1` yielded a TGI of over 100 µM. On the same count and under the same terms, to `CCCn1c(=O)c2ccccc2[n+]2c(-c3ccc([N+](=O)[O-])cc3)csc12` belongs over 100 µM; to `ON(CCc1ccncc1)Cc1ccccc1`, over 100 µM. In the case of `CNC(=O)c1c(NC(=O)c2cccc(C(F)(F)F)c2)sc2c1CCC(=O)C2`, the GI50 is 2.74 µM and the TGI worked out at 18.1 µM. Taken in the same sequence, the figures for `COc1cc2c(c(OC)c1OC)-c1ccc(NNC(=S)N(Cc3cccc(C[N+](Cc4cccc(CNC56CC7CC(CC(C7)C5)C6)c4)(Cc4cccc(CNC56CC7CC(CC(C7)C5)C6)c4)Cc4cccc(CN(C(=S)NNc5ccc6c(cc5=O)[C@@H](NC(C)=O)CCc5cc(OC)c(OC)c(OC)c5-6)C56CC7CC(CC(C7)C5)C6)c4)c3)C34CC5CC(CC(C5)C3)C4)c(=O)cc1[C@@H](NC(C)=O)CC2` (stereo not given in full) were 2.57 µM and 7.02 µM.

The molecule `OCCN(CCO)c1cccc(N(CCO)CCO)c1` gave a TGI of over 100 µM. `CCON=C1C(C)(C)C(C)(C)C(C)(C)C1(C)C` had a TGI of over 100 µM.

`CCOC(=O)c1cc2c(n1Cc1cc(OC)cc(OC)c1)-c1oncc1CCC2`: the GI50 was 0.463 µM and the TGI was over 100 µM. The molecule `CCCC(CC)c1c(O)c(O)c(C(CC)CCC)c(C(CC)CCC)c1C(CC)CCC` (stereo not given) came in with a TGI of over 10 µM.

Consider `NC(=O)C(Br)CBr` (stereo not given), for which the GI50 is 18.9 µM and the TGI stood at 46.6 µM. `C=CCC12CCC(=O)C=C1CCC1(C2)OCCO1` (stereo not given) came in with a TGI of over 100 µM. `O=C1CCC2CCc3cccc4oc1c2c34` (stereo not given) gave a TGI of over 100 µM. On the same count and under the same terms, to `CC(=O)NC1C(OCc2ccccc2)OC(CO)C(O)C1OCC(=O)NC(C)C(=O)NC(CCC(=O)NCCCCCNc1c2ccccc2nc2cccc([N+](=O)[O-])c12)C(N)=O` (stereo not given) belongs 0.0104 µM; to `O=C(NC1(C(=O)NNc2nnc(-c3ccccc3)c(-c3ccccc3)n2)C(c2ccccc2)C(c2ccccc2)=NN1c1ccccc1)c1ccccc1` (stereo not given), over 100 µM. Molecule `[N-]=[N+]=NC1CC(n2cc(COCC(F)(F)F)c(=O)[nH]c2=O)OC1CO` (stereo not given) gave a TGI of over 100 µM. With `COC(=O)c1ccc(CCc2cc(O)ccc2O)cc1`, the TGI is over 100 µM. `OCC(Cn1cncn1)(c1ccc(F)cc1F)n1cncn1` (stereo not given) gave a TGI of over 100 µM. As for `COc1ccc(Nc2ccnc(NCCNc3ccnc4cc(Cl)ccc34)n2)cc1`, the GI50 is 2.25 µM and the TGI was determined as 10.8 µM. `CO/C(=N\N=C\c1ccc(Cl)cc1Cl)c1ccncc1` registered a TGI of over 10 µM. `CSc1ccc(-c2cc(-c3ccc(NC(=O)CCCN4CCCC4)cc3)nc(-c3ccc(NC(=O)CCCN4CCCC4)cc3)c2)cc1`: the GI50 was 4.28 µM and the TGI was determined as 16.6 µM. Take `NS(=O)(=O)c1ccc(Nc2c3ccccc3nc3c(C(=O)NCCCN(CCO)CCO)cccc23)cc1`: the TGI is over 100 µM. On the same count and under the same terms, the result for `Cc1cc(N=Cc2c(CO)cnc(C)c2O)c(N=Cc2c(CO)cnc(C)c2O)cc1C.[Zn]` reads over 100 µM; that for `CCN(CC)CC(=O)/C=C/c1ccc(C)cc1`, over 100 µM. Turning to `CCOP(=O)(OCC)/C(=C\N1C(=O)CC(=O)NC1=S)C(=O)OC`, the TGI was over 100 µM.

The molecule `NC1C2C(CC(=O)O)OCC=C3CN4CCC1(C(=O)C(=O)O)C4CC32` (stereo not given) showed a TGI of over 100 µM.

Consider `CNc1nc(C)c(-c2nc(Nc3cccc(S(N)(=O)=O)c3)ncc2F)s1`, for which the GI50 was 0.0262 µM and the TGI is 13.9 µM. Taken in the same sequence, the figures for `O=S1(=O)N(Cc2ccccc2)[C@@H](Cc2ccccc2)C2O[C@H]2[C@H](Cc2ccccc2)N1Cc1ccccc1` (stereo not given in full) were over 7.5 µM and over 7.5 µM. In turn, `O=c1[nH]c2ccccc2nc1/C=C(\O)C(F)F` showed a TGI of over 100 µM. In turn, `CCOC(=O)C1=C(C)C(C(=O)OC)/C(=C/c2cccc3cccnc23)C1=O` (stereo not given) displayed a TGI of over 10 µM. On the same count and under the same terms, the result for `NC(c1ccccc1)(C(F)(F)F)P1(=O)OC(=O)c2ccccc2O1` (stereo not given) reads over 100 µM; that for `CCNc1c(C(=O)N(CC)CC)c(=O)[nH]c2ncccc12`, over 100 µM. Consider `Cc1ccc2c[c]1[Hg][CH2]COS2(=O)=O`, for which the GI50 is over 100 µM and the TGI was over 100 µM. Take `CN(C)c1ccc(C(=O)c2ccc(N(C)C)c(N)c2)cc1N`: the GI50 was 7.34 µM and the TGI is over 95.2 µM. In the case of `C=C1C(=O)O[C@H]2[C@H]1CC/C(CNC(=O)/C=C/c1cccc(OC)c1)=C\CC[C@@]1(C)O[C@@H]21`, the GI50 is 10.3 µM and the TGI was determined as 22.1 µM. As for `CC(C)COC(=O)N1N=NC2C3OC(CC3=O)C21` (stereo not given), the TGI was over 100 µM. Take `CC(C)(C)n1c(=O)n(C(=O)C(Cl)(Cl)Cl)n(C(=O)C(Cl)(Cl)Cl)c1=O`: the TGI was over 100 µM.

Take `COc1ccc(C[C@H](N)C(=O)N2C[C@H](CO)C[C@H](n3cnc4c(N(C)C)ncnc43)C2)cc1`: the TGI is over 100 µM. Regarding `CN(C)C(=S)NN=C(c1ccccn1)c1ccccn1`, the GI50 is under 0.0123 µM and the TGI came to 22 µM. The molecule `CNS(=O)(=O)NN(C)S(=O)(=O)c1ccc(Cl)cc1` had a TGI of over 100 µM. `OCC(O)C1OC2CC1Nc1ccccc1N2` (stereo not given) registered a TGI of over 100 µM. In the case of `COC(=O)Nc1nc2ccc(Oc3ccc(NC(=O)Nc4cccc(Br)c4)cc3)cc2[nH]1`, the GI50 was 5.23 µM and the TGI was over 25 µM. Regarding `O=c1[nH]c(-c2ccccc2)nc2ccc(Cl)cc12`, the TGI was over 100 µM. Molecule `O=C1O[C@H](C(Cl)(Cl)Cl)N2CCCC12` (stereo not given in full) came in with a TGI of over 100 µM. The molecule `O=C1CCCC2=C1C(c1ccc3c(c1)OCO3)Nc1ccc3ccccc3c12` (stereo not given) had a TGI of over 100 µM. `Cc1ccc(-n2c(O)c3c(N)n[nH]c3c(C#N)c2=O)cc1` had a TGI of over 100 µM. `CC1(C)CN(c2ccccc2)C(=O)C1OC(=O)[C@@]1(C)C[C@@H]2C=C[C@H]1C2` (stereo not given in full) had a TGI of over 100 µM.

`CC(=Nc1c2ccccc2nc2ccccc12)N(C)C` showed a TGI of over 100 µM. Still for that read-out and setting: to `CCOC(=O)C(=O)C1C(=O)Nc2ccccc21` (stereo not given) belongs over 100 µM; to `CSc1nc(NC2OCC(O)C(O)C2O)c(N)c(=O)n1C` (stereo not given), over 100 µM.

With `O=C(Cn1c(=O)c(-c2ccccc2)nc2ccccc21)c1cccnc1`, the GI50 is over 100 µM and the TGI was over 100 µM. `CC1(C)[C@@H](Cn2cnc3c(=O)[nH]c(N)nc32)CC[C@@]1(C)CO` showed a TGI of over 100 µM. Regarding `NCCNCCCCCCNC(=O)c1cccc2cc3ccccc3nc12`, the TGI stood at 10.3 µM. In the case of `C=C(CC(=O)Nc1ccc(C(=O)OC)o1)C(=O)OC`, the TGI was over 100 µM.

Take `CN(C)CCCNc1c2ccccc2nc2cccc([N+](=O)[O-])c12`: the GI50 was 0.0225 µM; the TGI is 0.0133 µM and 0.0485 µM.
